# Measured values reported in the supplement of paper PMC7826260.
# This is one part of the list. Viral Rep nickase domains cut single-stranded DNA in vitro for 1 h at 37 °C with 3 µM enzyme; only the middle of the 90-letter strands is printed. The score is log2 (uncut reads / reads without enzyme); uncut sequences lie near 0, cut ones below; no hit call is given. Because reads are shares of a total, they shift together; uncut strands gain when others are lost, and binding without cutting may add a little.
# Legend:
# Assay in all cases: uncleaved DNA left, log2 of reads against the no-enzyme library (log2 ratio); higher = less cleavage (more negative = more Rep cleavage of the k-mer); sequences stand for … in CTCGTCCG…ACCGGAGA
# [1] = system: T1, Rep nickase domain of Muscovy duck circovirus
# T1 sequence (Rep 1-111, printed without the tag): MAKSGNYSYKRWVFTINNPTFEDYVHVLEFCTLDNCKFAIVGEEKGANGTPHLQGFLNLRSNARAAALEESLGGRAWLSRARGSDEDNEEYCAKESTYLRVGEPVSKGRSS
# Procedure: (§1)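 A pool of 90-nt single-stranded DNAs with seven random bases just before the constant AC of the nick site (name = the seven bases) was cut by 3 µM recombinant His6-SUMO-tagged Rep nickase domain (300 nM DNA, 50 mM HEPES pH 8.0, 50 mM NaCl, 1 mM MnCl2, 1 h, 37 °C, three replicates). Uncut DNA was amplified and sequenced.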
# [2] = system: T2, Rep nickase domain of banana bunchy top virus
# T2 sequence (Rep 1-94, printed without the tag): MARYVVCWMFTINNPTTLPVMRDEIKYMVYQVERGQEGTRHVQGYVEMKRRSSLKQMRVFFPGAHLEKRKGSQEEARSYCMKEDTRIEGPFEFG
# Procedure: as §1
# [3] = system: T3, Rep nickase domain of cabbage leaf curl virus
# T3 sequence (Rep 1-116, printed without the tag): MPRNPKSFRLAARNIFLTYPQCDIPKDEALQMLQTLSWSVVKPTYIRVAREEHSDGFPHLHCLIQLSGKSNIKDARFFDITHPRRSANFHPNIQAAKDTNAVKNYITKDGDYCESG
# Procedure: as §1
# [4] = system: T4, Rep nickase domain of chickpea chlorotic dwarf virus
# T4 sequence (Rep 1-124, printed without the tag): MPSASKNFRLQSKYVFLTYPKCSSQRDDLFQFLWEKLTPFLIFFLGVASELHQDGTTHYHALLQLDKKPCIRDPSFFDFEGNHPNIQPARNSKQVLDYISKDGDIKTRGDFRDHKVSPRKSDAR
# Procedure: as §1
# [5] = system: T5, Rep nickase domain of faba bean necrotic yellows virus
# T5 sequence (Rep 1-98, printed without the tag): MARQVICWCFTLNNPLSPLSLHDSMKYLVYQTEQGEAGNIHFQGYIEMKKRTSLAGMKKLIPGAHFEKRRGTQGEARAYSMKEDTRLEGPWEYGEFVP
# Procedure: as §1
# [6] = system: T6, Rep nickase domain of maize striate mosaic virus
# T6 sequence (Rep 1-117, printed without the tag): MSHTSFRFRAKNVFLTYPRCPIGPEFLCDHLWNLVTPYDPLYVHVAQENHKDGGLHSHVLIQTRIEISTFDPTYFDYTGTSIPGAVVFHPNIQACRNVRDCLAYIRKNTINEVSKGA
# Procedure: as §1
# [7] = system: T7, Rep nickase domain of porcine circovirus 2
# T7 sequence (Rep 2-116, printed without the tag): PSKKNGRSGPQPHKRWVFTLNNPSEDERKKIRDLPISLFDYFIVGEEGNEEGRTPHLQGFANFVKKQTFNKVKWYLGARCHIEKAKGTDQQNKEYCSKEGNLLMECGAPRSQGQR
# Procedure: as §1
# [8] = system: T8, Rep nickase domain of tomato yellow leaf curl virus
# T8 sequence (Rep 1-136, printed without the tag): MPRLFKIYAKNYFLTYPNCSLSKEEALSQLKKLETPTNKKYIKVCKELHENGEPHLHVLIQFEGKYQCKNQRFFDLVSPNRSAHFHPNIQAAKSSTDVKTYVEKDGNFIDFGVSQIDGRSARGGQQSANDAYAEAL
# Procedure: as §1
# [9] = system: T9, Rep nickase domain of wheat dwarf virus
# T9 sequence (Rep 1-137, printed without the tag): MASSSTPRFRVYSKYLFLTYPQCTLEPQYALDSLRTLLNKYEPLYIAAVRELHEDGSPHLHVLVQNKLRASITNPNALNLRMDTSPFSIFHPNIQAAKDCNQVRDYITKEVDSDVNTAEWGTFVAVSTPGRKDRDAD
# Procedure: as §1
sequence,measurement,setting,value
ACAGACC,uncleaved DNA left (log2),[1],-0.107
same,uncleaved DNA left (log2),[2],0.0256
same,uncleaved DNA left (log2),[3],-0.104
same,uncleaved DNA left (log2),[4],0.432
same,uncleaved DNA left (log2),[5],-0.0896
same,uncleaved DNA left (log2),[6],0.252
same,uncleaved DNA left (log2),[7],0.0155
same,uncleaved DNA left (log2),[8],-0.202
same,uncleaved DNA left (log2),[9],-0.132
TTATTTC,uncleaved DNA left (log2),[1],-0.145
same,uncleaved DNA left (log2),[2],-0.0849
same,uncleaved DNA left (log2),[3],-0.0913
same,uncleaved DNA left (log2),[4],-0.557
same,uncleaved DNA left (log2),[5],-0.0539
same,uncleaved DNA left (log2),[6],-0.869
same,uncleaved DNA left (log2),[7],-0.0543
same,uncleaved DNA left (log2),[8],0.0071
same,uncleaved DNA left (log2),[9],-0.022
TTCCTCT,uncleaved DNA left (log2),[1],-0.0147
same,uncleaved DNA left (log2),[2],-0.0422
same,uncleaved DNA left (log2),[3],-0.122
same,uncleaved DNA left (log2),[4],-2.07
same,uncleaved DNA left (log2),[5],-0.0799
same,uncleaved DNA left (log2),[6],-0.454
same,uncleaved DNA left (log2),[7],-0.322
same,uncleaved DNA left (log2),[8],-0.0526
same,uncleaved DNA left (log2),[9],0.0174
AATGGGG,uncleaved DNA left (log2),[1],0.024
same,uncleaved DNA left (log2),[2],-0.047
same,uncleaved DNA left (log2),[3],0.123
same,uncleaved DNA left (log2),[4],0.375
same,uncleaved DNA left (log2),[5],0.00221
same,uncleaved DNA left (log2),[6],-0.188
same,uncleaved DNA left (log2),[7],0.271
same,uncleaved DNA left (log2),[8],-0.114
same,uncleaved DNA left (log2),[9],-0.0754
GACGTAC,uncleaved DNA left (log2),[1],0.00739
same,uncleaved DNA left (log2),[2],-0.0284
same,uncleaved DNA left (log2),[3],0.155
same,uncleaved DNA left (log2),[4],0.454
same,uncleaved DNA left (log2),[5],0.117
same,uncleaved DNA left (log2),[6],0.134
same,uncleaved DNA left (log2),[7],-0.0077
same,uncleaved DNA left (log2),[8],0.121
same,uncleaved DNA left (log2),[9],0.199
ACAACGA,uncleaved DNA left (log2),[1],-0.0478
same,uncleaved DNA left (log2),[2],-0.092
same,uncleaved DNA left (log2),[3],-0.449
same,uncleaved DNA left (log2),[4],-0.392
same,uncleaved DNA left (log2),[5],-0.123
same,uncleaved DNA left (log2),[6],-1.1
same,uncleaved DNA left (log2),[7],0.0728
same,uncleaved DNA left (log2),[8],-0.103
same,uncleaved DNA left (log2),[9],-0.088
ATTTCGT,uncleaved DNA left (log2),[1],-0.117
same,uncleaved DNA left (log2),[2],-0.124
same,uncleaved DNA left (log2),[3],-0.564
same,uncleaved DNA left (log2),[4],-1.14
same,uncleaved DNA left (log2),[5],0.0293
same,uncleaved DNA left (log2),[6],-1.22
same,uncleaved DNA left (log2),[7],-0.273
same,uncleaved DNA left (log2),[8],-0.0875
same,uncleaved DNA left (log2),[9],-0.154
ATAGCTG,uncleaved DNA left (log2),[1],-0.0136
same,uncleaved DNA left (log2),[2],0.0947
same,uncleaved DNA left (log2),[3],0.377
same,uncleaved DNA left (log2),[4],1.74
same,uncleaved DNA left (log2),[5],0.0934
same,uncleaved DNA left (log2),[6],1.7
same,uncleaved DNA left (log2),[7],0.199
same,uncleaved DNA left (log2),[8],-0.0394
same,uncleaved DNA left (log2),[9],-0.00608
AATGTGT,uncleaved DNA left (log2),[1],0.0149
same,uncleaved DNA left (log2),[2],-0.107
same,uncleaved DNA left (log2),[3],-0.333
same,uncleaved DNA left (log2),[4],-0.737
same,uncleaved DNA left (log2),[5],0.0657
same,uncleaved DNA left (log2),[6],-0.835
same,uncleaved DNA left (log2),[7],-0.319
same,uncleaved DNA left (log2),[8],-0.0429
same,uncleaved DNA left (log2),[9],-0.00657
GTCCACG,uncleaved DNA left (log2),[1],-0.0228
same,uncleaved DNA left (log2),[2],0.0385
same,uncleaved DNA left (log2),[3],0.0807
same,uncleaved DNA left (log2),[4],0.359
same,uncleaved DNA left (log2),[5],-0.112
same,uncleaved DNA left (log2),[6],0.233
same,uncleaved DNA left (log2),[7],0.086
same,uncleaved DNA left (log2),[8],-0.0284
same,uncleaved DNA left (log2),[9],-0.0665
AGCAGAC,uncleaved DNA left (log2),[1],0.034
same,uncleaved DNA left (log2),[2],-0.0512
same,uncleaved DNA left (log2),[3],0.086
same,uncleaved DNA left (log2),[4],0.469
same,uncleaved DNA left (log2),[5],0.0019
same,uncleaved DNA left (log2),[6],0.978
same,uncleaved DNA left (log2),[7],0.0447
same,uncleaved DNA left (log2),[8],-0.143
same,uncleaved DNA left (log2),[9],0.00991
TCGGTTC,uncleaved DNA left (log2),[1],-0.171
same,uncleaved DNA left (log2),[2],0.0336
same,uncleaved DNA left (log2),[3],0.312
same,uncleaved DNA left (log2),[4],-0.0276
same,uncleaved DNA left (log2),[5],-0.0878
same,uncleaved DNA left (log2),[6],0.665
same,uncleaved DNA left (log2),[7],0.0945
same,uncleaved DNA left (log2),[8],-0.0818
same,uncleaved DNA left (log2),[9],-0.0341
CCTCGCG,uncleaved DNA left (log2),[1],0.128
same,uncleaved DNA left (log2),[2],0.0863
same,uncleaved DNA left (log2),[3],-0.613
same,uncleaved DNA left (log2),[4],0.13
same,uncleaved DNA left (log2),[5],0.0957
same,uncleaved DNA left (log2),[6],-0.619
same,uncleaved DNA left (log2),[7],0.194
same,uncleaved DNA left (log2),[8],0.149
same,uncleaved DNA left (log2),[9],-0.0137
TCCGTCC,uncleaved DNA left (log2),[1],-0.0676
same,uncleaved DNA left (log2),[2],-0.0304
same,uncleaved DNA left (log2),[3],0.287
same,uncleaved DNA left (log2),[4],0.0768
same,uncleaved DNA left (log2),[5],-0.0248
same,uncleaved DNA left (log2),[6],0.152
same,uncleaved DNA left (log2),[7],-0.0154
same,uncleaved DNA left (log2),[8],-0.0276
same,uncleaved DNA left (log2),[9],-0.00648
GATGCTC,uncleaved DNA left (log2),[1],0.0377
same,uncleaved DNA left (log2),[2],0.0627
same,uncleaved DNA left (log2),[3],0.258
same,uncleaved DNA left (log2),[4],0.276
same,uncleaved DNA left (log2),[5],0.0657
same,uncleaved DNA left (log2),[6],0.197
same,uncleaved DNA left (log2),[7],0.0427
same,uncleaved DNA left (log2),[8],0.184
same,uncleaved DNA left (log2),[9],0.0398
